Out of some 420,000 compounds screened, about 50,000 (12%) were called active. The inconclusive results got no clear call from the source; some entries with a clear call stand among them for comparison. The call rests on the fitted dose curve; in most records, active means well fitted inhibition curve with a large enough effect; inconclusive means small, poorly fitted or top-dose-only effect; inactive means flat fitted curve, though single readings scatter. No potency is given beside an inconclusive call; the fits are too rough. Where a SMILES comes first, the peptide text is derived from it. [ ]: non-standard residue; d: D form. The star is where a group is joined. ξ: configuration not given here. ξH = NC(Cc1c[nH]cn1)C(=O)O; Cbz = O=C(OCc1ccccc1)*
Assay: qHTS for Inhibitors of human tyrosyl-DNA phosphodiesterase 1 (TDP1): qHTS in cells in presence of CPT; further: nearly all actives have a fitted effect of over 55% in size
Conditions: chicken DT40 Tdp1-/-;hTDP1 cells + 20 nM CPT, ATP luminescence, 48 h; activity change, negative = growth inhibition: at 46.2 µM (top of the series) unless noted
Summary of the method: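 Chicken DT40 Tdp1-/- cells complemented with human TDP1, 400 cells/well, exposed to compounds plus 20 nM camptothecin for at least 48 h at 37 C; viability read as ATP content by CellTiter-Glo luminescence.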
On the % scale 0 is the no-effect control and ±100 the full control effect; potency means the concentration at half of the fitted maximal effect; tags describe the fitted curve by direction and shape.

Structure (SMILES)	Potency	activity change, negative = growth inhibition
O=C(Nc1ccc(Cc2ccncc2)cc1)c1cccc([N+](=O)[O-])c1	inconclusive [inhibitor, single point]	
CCOC(=O)C(C)n1nc(C)c2sc3ccccc3c2c1=O (centres undefined)	inconclusive [inhibitor, single point]	
COc1ccc(S(=O)(=O)N2CCN(CC(=O)Nc3ccc(Cl)c(C(F)(F)F)c3)CC2)cc1	active: 9.2 µM	
Cc1ccc(Cl)cc1NC(=O)CSc1nc2c(c(=O)[nH]1)CN(Cc1ccccc1)CC2		inactive: -15.7%
O=C(CNC(=O)OCc1ccccc1)NC(Cc1cnc[nH]1)C(=O)O (stereo not drawn) (Cbz-Gly-[ξH]-OH)	inconclusive [inhibitor, single point]	
Cc1ccc(SC2=C[C@@]3(O)CC[C@@H](O)[C@@](Sc4ccc(C)cc4)(C2=O)[C@H]3O)cc1	active: 23.1 µM	
CC1(c2ccc(F)cc2)OC(=O)c2c1ccc1ccccc21 (centres undefined)	inconclusive [inhibitor, partial curve]	
COc1ccc(CNC(=O)c2cc3cccc4c3n2CC(C)S4)c(OC)c1 (centres undefined)	active: 9.2 µM	
COc1cc(SC)ccc1C(=O)N(C)CC(=O)Nc1cccc2ccccc12	inconclusive [inhibitor, partial curve]	
CC(C)c1ccc(C(=O)CN2C(=O)NC3(CCc4ccccc43)C2=O)cc1 (centres undefined)	inconclusive [inhibitor, partial curve, poor fit]	
Cc1cccc(NC(=O)CSc2nc(=O)n(Cc3ccccn3)c3c2CCC3)c1C		inactive: 4.44%
Cc1cc(C(=O)N/N=C/c2cc([N+](=O)[O-])ccc2O)c2ccccc2n1	active: 5.17 µM	
COc1ccc(C(=O)CSc2nnc(Cn3nnc4ccccc43)n2C)cc1		inactive: -17.3%
COc1ccc(C(=O)Oc2cc(-c3ccc4c(c3)OCO4)cc(=O)c3c(C)oc(C)c23)cc1	inconclusive [inhibitor, single point]	
O=C(CSc1ncc(CO)n1Cc1ccc(Cl)cc1)NCc1ccc(F)cc1	inconclusive [inhibitor, single point]	
Cc1cc2cc(C#N)c(SCC(=O)Nc3nonc3C)nc2cc1C	inconclusive [inhibitor, single point]	
CCOc1ccc(NC(=O)Cn2cc(C(C)=O)c3ccccc32)cc1	inconclusive [inhibitor, single point]	
CC(C)(C)C1CCC(C(=O)Nc2nccs2)CC1 (centres undefined)	inconclusive [inhibitor, partial curve, poor fit]	
COc1ccc(-c2cc(C(F)F)n3ncc(C(=O)Nc4ccc(C(=O)N5CCOCC5)cc4)c3n2)cc1	active: 10.3 µM	

Reference: PubChem BioAssay AID686979 (National Center for Advancing Translational Sciences (NCATS), 2013)
